Source: article PMC4336329 (PLoS ONE, 2015)
Screen size: about 310,000 compounds; about 2,200 (0.71%) showed an effect of 50% or more. Effects have a minus sign here. This is one part of the list.

Target: human ether-à-go-go-related gene (hERG) potassium channel (human, UniProt Q12809)
Assay: primary screen, population patch clamp on CHO cells stably expressing hERG

Sequence of human ether-à-go-go-related gene (hERG) potassium channel (Q12809 whole entry, looked up): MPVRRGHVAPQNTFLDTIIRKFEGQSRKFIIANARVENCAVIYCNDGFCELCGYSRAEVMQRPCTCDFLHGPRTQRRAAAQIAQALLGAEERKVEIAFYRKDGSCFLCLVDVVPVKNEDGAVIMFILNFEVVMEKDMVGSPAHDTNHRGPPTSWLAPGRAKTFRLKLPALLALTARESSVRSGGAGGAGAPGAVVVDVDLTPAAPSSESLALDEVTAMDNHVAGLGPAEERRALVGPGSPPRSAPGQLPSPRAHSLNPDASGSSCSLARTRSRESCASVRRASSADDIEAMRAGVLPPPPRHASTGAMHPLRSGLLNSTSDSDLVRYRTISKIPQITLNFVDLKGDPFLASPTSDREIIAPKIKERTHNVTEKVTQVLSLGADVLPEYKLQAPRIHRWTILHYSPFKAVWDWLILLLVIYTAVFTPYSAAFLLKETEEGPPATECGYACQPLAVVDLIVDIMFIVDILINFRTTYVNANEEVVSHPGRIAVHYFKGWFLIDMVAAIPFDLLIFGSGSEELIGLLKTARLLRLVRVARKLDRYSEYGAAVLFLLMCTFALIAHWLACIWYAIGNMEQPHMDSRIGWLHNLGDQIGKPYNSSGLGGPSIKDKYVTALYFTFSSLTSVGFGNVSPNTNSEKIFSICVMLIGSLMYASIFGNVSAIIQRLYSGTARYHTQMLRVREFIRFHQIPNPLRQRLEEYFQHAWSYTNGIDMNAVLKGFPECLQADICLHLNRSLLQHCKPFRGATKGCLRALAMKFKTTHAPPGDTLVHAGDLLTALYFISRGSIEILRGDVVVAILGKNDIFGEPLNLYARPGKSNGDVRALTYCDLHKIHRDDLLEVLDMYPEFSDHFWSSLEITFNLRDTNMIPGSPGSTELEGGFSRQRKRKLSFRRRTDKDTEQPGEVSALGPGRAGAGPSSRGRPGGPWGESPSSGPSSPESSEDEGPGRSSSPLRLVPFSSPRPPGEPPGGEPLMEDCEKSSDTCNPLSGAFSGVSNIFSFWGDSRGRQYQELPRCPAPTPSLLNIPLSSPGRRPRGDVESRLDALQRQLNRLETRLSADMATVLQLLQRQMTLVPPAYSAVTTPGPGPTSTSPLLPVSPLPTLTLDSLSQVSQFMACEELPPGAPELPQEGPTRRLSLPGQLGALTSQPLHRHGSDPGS

SMILES	hERG current change (%, negative = inhibition) at 1uM [%]
CCc1c(C(=O)NC2CCCC2)csc1C	-4.98
CC(C)Nc1nc(Oc2cccc(Cl)c2Cl)cc(C(F)(F)F)n1	12.9
O=C(NCc1ccco1)C1CC(c2cccc([N+](=O)[O-])c2)=NO1 (stereo not shown)	-5.75
COc1ccccc1C(=O)NC(=O)CSc1nc(C)cs1	14.7
CCC(C)[C@H](NC(=O)NCc1cccs1)C(=O)OC (stereo partly shown)	6.99
COc1ccc(C)cc1NC(=O)C1CC1c1ccccc1 (stereo not shown)	5
COc1ccc(CC(=O)NC2CCSc3ccccc32)cc1OC (stereo not shown)	10.2
COc1ccc(-c2nc(CSCC(=O)NC3CCN(Cc4ccccc4)CC3)c(C)o2)cc1OC	1.98
O=C(Nc1cc(Cl)ccc1N1CCOCC1)c1ccc(N2CCCC2=O)cc1	7.06
COC(=O)Cn1c(=NC(=O)CSCC(=O)Nc2cc(C)on2)sc2cc(C(=O)OC)ccc21	8.35
C=CCn1c(SCC(=O)Nc2cc(C)on2)nc2sc3c(c2c1=O)CCCC3	-0.954
CC1C(=O)O[C@@H]2C[C@@H](C)[C@@H]3CCC(=O)[C@@]3(C)[C@@H](O)[C@H]12 (stereo partly shown)	9.74
CCCCNC1c2ccccc2C(=O)N1Cc1ccccc1.Cl (stereo not shown)	14
COc1cc(CC(=O)OCC(=O)Nc2sccc2C(N)=O)cc(OC)c1OC	19
COc1cc(/C=N/N2CCOCC2)ccc1OCc1ccccc1	14.8
COCCNC(=O)NC(=O)CSc1nc(C)c(C)c(C)n1	5.2
COc1cc(/C=C2\SC(=S)N(NS(=O)(=O)c3ccc(C)cc3)C2=O)cc(OC)c1OC	9.52
COc1cc(OC)cc(C(=O)NC(C(=O)Nc2ccc3c(c2)OCO3)C(C)C)c1 (stereo not shown)	13.5
CN(C)S(=O)(=O)n1cc(/C=C(\NC(=O)c2ccccc2Cl)C(=O)N2CCOCC2)c2ccccc21	13.6
CCOC(=O)c1cccc(N2C(=O)Nc3ccccc3N2O)c1	5.42
COc1ccc(CCC(=O)Nc2ncc(C)s2)cc1	8.76
Cc1nonc1C(=O)N/N=C/c1ccccc1	15.8
O=C(O)C(=O)O.OCC1CCCCN1CC(O)COC(c1ccc(F)cc1)c1ccc(F)cc1 (stereo not shown)	-60.9
Cc1cc(C)nc(N/N=C/c2ccccc2OCc2ccc(Br)cc2)n1	24.4
C=CCc1c(C)nc(SC)nc1Nc1ccc(C(=O)O)cc1	6.6
Cc1cc(C)n(CCN(C)C(=O)c2cc(COc3c(F)cccc3F)on2)n1	9.28
CCOC(=O)/C=c1\s/c(=C\c2ccc(C#N)cc2)c(=O)n1CC(=O)Nc1cccc(C)c1C	12.2
N#C/C(=C\c1c(N2CCCCC2)nc2ccccn2c1=O)C(=O)NCc1ccco1	-1.26

SMILES	hERG current change (%, negative = inhibition) at 1uM [%]
O=C(Cn1nnc(-c2ccccc2)n1)NNC(=O)c1ccc(Br)cc1	13.4
COc1cc2nc(CCc3ccccc3)oc(=O)c2cc1OC	3.38
O=C(CSC1=NC2(CCCCCC2)N=C1c1ccccc1)Nc1ccc2c(c1)OCCO2	-3.79
COc1ccc(/C=C/C(=O)c2ccncc2)c2ccccc12	6.8
Nc1cccc(-c2nc3ccc(N)cc3s2)c1	3.6
CSc1cccc(CN(C)C(=O)C2CCC(=O)N(CCCN3CCCC3=O)C2)c1 (stereo not shown)	14.4
Cc1ccccc1OCC(=O)Nc1ccc(N2CCN(C(=O)c3ccco3)CC2)cc1	2.21
CN1CCN(Cc2oc(CO)cc(=O)c2O)CC1	6.31
O=C(c1ccc(Cl)cc1)N1CCc2ccccc21	-3.3
O=C(Cn1nnc(-c2ccc(Cl)cc2)n1)N1CCN(C(=O)c2ccco2)CC1	1.64
Cc1cc(C(F)(F)F)nn1-c1nc(-c2ccco2)cc(C(F)(F)F)n1	2.88
COc1ccc(N2CCN(C(=O)C3CCN(C(=O)c4cccc(Cl)c4)CC3)CC2)cc1	3.92
CCN(CC)S(=O)(=O)c1ccc(OC)c(NC(=O)CCS(=O)(=O)Cc2ccccc2)c1	12.4
CCN(CC)C(=O)C1CCCN(c2ccc([N+](=O)[O-])cc2/C=N/NC(=O)c2cccc(Br)c2)C1 (stereo not shown)	6.97
Cc1ccc(C(=O)N2CCCN(c3nc4cc5c(cc4cc3C#N)OCO5)CC2)cc1	15.9
CCN(C(=O)COc1cccnc1[N+](=O)[O-])C1CCS(=O)(=O)C1 (stereo not shown)	7.81
CCOC(=O)[C@@H]1[C@H]2COc3ccc(Br)cc3[C@@H]2N2C(=O)N(c3ccc(C(F)(F)F)cc3)C(=O)[C@@]12C	7.49
Cc1cc(C)c(OCC(=O)OCC(=O)N2CCc3ccccc3C2)c(C)c1	11.6
COc1ccc(C(c2c(NC(C)=O)sc3c2CCCC3)N2CCN(CCO)CC2)cc1OC (stereo not shown)	8.62
CCN(C(=O)CCS(=O)(=O)c1cccc2nsnc12)c1cccc(C)c1	8.98
Cc1ccc2ccc(C)[n+](CCCS(=O)(=O)[O-])c2c1	13.9
O=C(CNC(=O)c1ccccc1F)NCCN1C(=O)S/C(=C\c2ccc3c(c2)OCO3)C1=O	2.45
Cc1c(C(=O)N(C)C)c2ccc(Cl)cc2n1O	11.5
CC(=O)/C=C(\C)Nc1c(C)n(C)n(-c2ccccc2)c1=O	11.1
Cc1nc(N2CCOCC2)c2c(C)c(C(=O)Nc3ccc(F)cc3Cl)sc2n1	13.8
COC(=O)c1ccccc1OCCCOc1ccc(C=O)cc1OC	5.43
Cc1nc(C)c(/C(O)=C/c2nc3ccccc3oc2=O)s1	13
